# Data: PubChem BioAssay AID624171 (National Center for Advancing Translational Sciences (NCATS), 2012)
# About 1,200 (0.29%) of roughly 410,000 compounds were called active. Inconclusive results, whose numbers are uncertain, are shown with a selection of clear calls. Calls come from the whole dose curve; as a rule, active = well fitted activation curve with a large enough effect; inconclusive = small, poorly fitted or top-dose-only effect; inactive = flat fitted curve, though single readings scatter. Potencies beside an inconclusive call are fits to weak or partial responses and may not hold up.
# Assay: qHTS of Nrf2 Activators; note: nearly all actives have a fitted effect of over 65% in size
# Settings: AREc32 ARE-luciferase reporter (MCF7-derived line), luminescence, 24 h; series mostly up to 46.1 µM
# How it was run: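 Luminescent ARE reporter assay in AREc32_Fluc cells: overnight plating at 37 deg C, 24 hr compound incubation, Steady-Glo added, 30 min RT before reading.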
# Potency is the fitted concentration of half-maximal effect; tags give direction and shape of the fitted curve.
row,Compound,Potency
1,CSc1ccc(OC2(C)CCN(Cc3ccccc3)C2)cc1 (stereo not drawn),inactive
2,O=C1C(Cl)=C(Nc2ccc(O)cc2)C(=O)c2ccccc21,"inconclusive: 3.16 µM [activator, single point]"
3,C#CC(=O)N(c1ccc(OC)cc1OC)C(C(=O)NC1CCCC1)c1cccs1 (stereo not drawn),"inconclusive: 22.4 µM [activator, single point]"
4,Cn1c(=O)c2c(nc(SCC(=O)Nc3ccc(F)c(F)c3)n2Cc2ccccc2F)n(C)c1=O,inactive
5,Cc1ccccc1/C=C/C(=O)c1ccc([N+](=O)[O-])o1,"inconclusive: 3.55 µM [activator, single point]"
6,O=C(Nc1ccc(-c2csc(Nc3ccc(Cl)cc3)n2)cc1)c1cccc(C(F)(F)F)c1,inactive
7,O=C(Nc1ccc(F)cc1)c1nsc(Cl)c1Cl,"inconclusive: 1.41 µM [activator, full curve, poor fit]"
8,CCc1cccc(CC)c1NC(=O)CN(C)S(=O)(=O)c1ccc2c(c1)n(C)c(=O)c(=O)n2C,inactive
9,Cc1ccc(C(=O)/C=C/c2ccco2)c(O)c1,"inconclusive: 17.8 µM [activator, partial curve, poor fit]"
10,Cc1nn(C)c(Sc2ccccc2N)c1[N+](=O)[O-],active: 14.1 µM
11,CC(C)(C)c1cc(NC(=O)CCl)n(-c2ccccc2)n1,"inconclusive: 25.1 µM [activator, single point]"
12,C/C=C/C1=CC(=O)C[C@H](c2ccc(OC)c(OC)c2)C1,"inconclusive: 14.1 µM [activator, single point]"
13,O=C(Nc1ccccc1O)c1ccc(NS(=O)(=O)c2cccc3cccnc23)cc1,active: 11.2 µM
14,C=CC[C@@H](CC(=O)N[C@H](CO)Cc1ccccc1)C(=O)N[C@H](COC(=O)[C@H](CC=C)CC(=O)OC(C)(C)C)Cc1c[nH]c2ccccc12,inactive
15,Cc1cc2c(C)cc(=O)[nH]c2cc1NC(=O)CCl,"inconclusive: 3.98 µM [activator, single point]"
16,Cc1ccc(/C=C/c2nc3ccccc3s2)s1,"inconclusive: 3.98 µM [activator, single point]"
17,Cc1ccc2nc(Cl)c(/C=N/Nc3nc(C)cc(C)n3)c(=O)n2c1,"inconclusive: 17.8 µM [activator, single point]"
18,COc1ccsc1C(=O)Nc1ccc(F)cc1F,"inconclusive: 11.2 µM [activator, partial curve, poor fit]"
19,Cc1cccnc1NC(=O)Nc1cccc2ccccc12,"inconclusive: 11.2 µM [activator, partial curve, poor fit]"
20,Clc1ccccc1Nc1nc2ccccc2o1,"inconclusive: 2.82 µM [activator, full curve, poor fit]"
21,CN1CCN(C(=O)CCCN2C(=O)/C(=C/c3ccc(Cl)cc3)SC2=S)CC1,"inconclusive: 11.2 µM [activator, single point]"
22,CCCC(=O)NC(=S)Nc1ccccc1C(=O)OC,inactive
23,COc1ccc(/C=C/C(=O)c2c(O)ccc3c(C)cc(=O)oc23)cc1,"inconclusive: 22.4 µM [activator, single point]"
24,COc1ccc(C2CC(c3cccc(F)c3)=NN2c2ccc(S(N)(=O)=O)cc2)cc1 (stereo not drawn),inactive
25,Cc1c(CCOC(=O)c2ccc(Cl)cc2Cl)sc[n+]1CC(=O)c1ccccc1,"inconclusive: 25.1 µM [activator, single point]"

row,Compound,Potency
1,CSc1nc(-c2ccccc2)nc(N2CCN(C)CC2)c1C(C)=O,inactive
2,CC(C)Cc1ccc(/C=C/C(=O)N2CCOCC2)cc1,inactive
3,CSc1nnc(-c2ccccc2SC)o1,"inconclusive: 15.8 µM [activator, single point]"
4,CC(=O)c1ccc(NC(=O)CN2CCN(c3ccccc3)CC2)cc1,inactive
5,O=C(NCCCN1CCc2ccccc2C1)C1CCN(S(=O)(=O)N2CCC3(CC2)OCCO3)CC1,inactive
6,COc1cc(CNCCN2CCOCC2)ccc1OCc1ccc(Cl)cc1,inactive
7,CCOC(=O)Cn1c(=O)oc2cc(S(=O)(=O)N3CCN(c4cccc(Cl)c4)CC3)ccc21,inactive
8,COc1cccc(NC(=O)c2cc3ccccc3cc2OC)c1,"inconclusive: 15.8 µM [activator, single point]"
9,CCCc1ccc(OCc2nc(-c3ccc(NC(=O)c4ccco4)cc3)no2)cc1,inactive
10,O=c1c2ccccc2nc(/C=C/c2cccc([N+](=O)[O-])c2)n1CCCO,"inconclusive: 0.891 µM [activator, partial curve, poor fit]"
11,CCCC(=O)Nc1sc(C)c(C)c1C#N,"inconclusive: 8.91 µM [activator, partial curve]"
12,COc1ccc(C(=O)COC(=O)/C=C/c2ccccc2[N+](=O)[O-])cc1,"inconclusive: 25.1 µM [activator, single point]"
13,Cc1ccc(S(=O)(=O)NCC(=O)OCC(=O)N2N=C(c3ccc(Cl)cc3)CC2c2ccco2)cc1C (stereo not drawn),inactive
14,O=C(Nc1ccccc1C(=O)OCc1cc(=O)n2nc(C3CC3)sc2n1)c1ccc(Cl)cc1,"inconclusive: 4.47 µM [activator, single point]"
15,C/C(=C\c1ccccc1)CN1CCN(c2cccc(Cl)c2)CC1,inactive
16,O=C1/C(=C\c2ccco2)SC(=S)N1Cc1ccccc1,"inconclusive: 35.5 µM [activator, single point]"
17,COc1ccc(C(=O)n2nc(-c3ccco3)nc2N)cc1OC,"inconclusive: 12.6 µM [activator, partial curve, poor fit]"
18,O=C(COC(=O)[C@@H]1CCCN1C(=O)c1cccs1)Nc1cccc([N+](=O)[O-])c1,"inconclusive: 11.2 µM [activator, single point]"
19,O=C(C(Br)=Cc1ccccc1)c1ccccc1,"inconclusive: 4.47 µM [activator, single point]"
20,Cc1csc(NC(=O)CSc2ncc(-c3ccccc3)[nH]2)n1,"inconclusive: 14.1 µM [activator, partial curve, poor fit]"
21,Cc1cccc(Nc2nc3c(s2)CCCC3)c1,"inconclusive: 17.8 µM [activator, single point]"
22,Oc1oc(-c2ccccc2Br)nc1C=Nc1ccc(Br)cn1,"inconclusive: 15.8 µM [activator, partial curve, poor fit]"
23,Cc1nc(NCc2ccco2)c(C#N)c2c1COC(C)(C)C2,inactive
24,COc1cccc(C2c3c(-c4cc(Cl)c(C)cc4O)n[nH]c3C(=O)N2Cc2cccnc2)c1 (stereo not drawn),inactive
25,CCc1ccc2ncc3c(-c4ccc(F)cc4)nn(CC(=O)NC4CCCCC4)c3c2c1,inactive

row,Compound,Potency
1,CC1CC(Nc2ccccc2)c2ccccc2N1C(=O)c1cccnc1 (stereo not drawn),inactive
2,O=C(Nc1ccc(S(=O)(=O)C(F)F)cc1)c1ccc2c(=O)n3c(nc2c1)CCC3,inactive
3,Cc1ccc(S(=O)(=O)NNC(=O)c2sccc2-n2cccc2)cc1,inactive
4,O=C(Nc1nc(-c2ccccn2)cs1)c1ncc(Cl)c(Cl)c1Cl,"inconclusive: 22.4 µM [activator, single point]"
5,C=C1C(=O)OC2C1CCC(C)=CCCC1(C)OC21 (stereo not drawn),"inconclusive: 3.16 µM [activator, single point]"
6,Fc1cc(F)c2nc(Nc3nc4cc5c(cc4s3)OCO5)sc2c1,"inconclusive: 4.47 µM [activator, full curve]"
7,CCOC(=O)C1=C(c2ccccc2)NC(SCC(=O)NC2CCCCC2)=C(C#N)C1c1ccco1 (stereo not drawn),inactive
8,CCOC(=O)C1=C(C)N(c2ccc(C)cc2)C(=O)/C1=C\c1ccc(O)c(OC)c1,"inconclusive: 28.2 µM [activator, single point]"
9,Cn1c(SCC(=O)Nc2ccccc2O)nnc1-c1ccco1,"inconclusive: 28.2 µM [activator, single point]"
10,Cc1cc(C)nc(NS(=O)(=O)c2ccc(NC(=O)c3cc(=O)c4ccc(C)c(C)c4o3)cc2)n1,inactive
11,O=C(Nc1nc(-c2cccs2)cs1)c1ccc(Cl)s1,"inconclusive: 12.6 µM [activator, single point]"
12,O=C1/C(=C\c2ccc(Cl)c(Cl)c2)CN(C(=O)CCN2CCOCC2)C/C1=C/c1ccc(Cl)c(Cl)c1,"inconclusive: 3.55 µM [activator, single point]"
13,CSc1nc(C)cc(/C=C\c2ccccc2)c1C#N,"inconclusive: 7.08 µM [activator, partial curve, poor fit]"
14,CC(C(=O)NC1C=CS(=O)(=O)C1)N1C(=O)/C(=C/c2ccc(Cl)cc2)SC1=S (stereo not drawn),"inconclusive: 35.5 µM [activator, single point]"
15,CCCSC1=N/C(=C\C=C\c2ccco2)C(=O)S1,active: 10 µM
16,Oc1ccccc1-c1cc(-c2ccccc2)no1,"inconclusive: 3.16 µM [activator, full curve, poor fit]"
17,N#CC(C#N)=C1C(=O)N(CCN2CCOCC2)c2ccccc21,"inconclusive: 20 µM [activator, single point]"
18,CCOC(=O)c1c(NC(=O)Nc2ccc(F)cc2)sc(C(=O)N(C)C)c1C,inactive
19,COc1nc(C)ccc1-c1noc(-c2ccco2)n1,"inconclusive: 3.98 µM [activator, full curve]"
20,Cc1cc(C(F)(F)F)c(C#N)c(SCC(=O)Nc2nc3cc(Br)ccc3s2)n1,inactive
21,CCOc1ccc(Cl)cc1CNCCCSc1nnnn1C,inactive
22,Fc1ccc(NC(=S)Nc2nccs2)cc1,"inconclusive: 14.1 µM [activator, partial curve, poor fit]"
23,CC(C)Cn1c(/C=C/c2ccco2)nc2ccccc21,active: 12.6 µM
